The record followed here is PMC3750045, “Human RNase H1 Is Associated with Protein P32 and Is Involved in Mitochondrial Pre-rRNA Processing” (PLoS ONE, 2013).

For test [1], the target named is HA-tagged human P32 (human) (UniProt Q07021). The test can be described thus: co-IP; anti-HA antibody on extracts of Flag-H1 and Flag-H2 stable HEK lines and control HEK cells, all transfected with HA-P32 plasmid; western blots.
Test [2] has the same target. The test can be described thus: co-IP; anti-HA antibody on extracts of control HeLa cells or HeLa cells transfected with HA-P32 plasmid; western blots with P32, RNase H1 or H2 antibodies.
In test [3] the target is T1, GST-P32 fusion protein (human, UniProt Q07021 74-282).
T1 construct: human P32 in the pGEX 3X vector; also called GST tagged P32; recombinant P32; source: E. coli, purified (GST beads); not shown: GST, N-terminal, kept
T1 sequence (looked up): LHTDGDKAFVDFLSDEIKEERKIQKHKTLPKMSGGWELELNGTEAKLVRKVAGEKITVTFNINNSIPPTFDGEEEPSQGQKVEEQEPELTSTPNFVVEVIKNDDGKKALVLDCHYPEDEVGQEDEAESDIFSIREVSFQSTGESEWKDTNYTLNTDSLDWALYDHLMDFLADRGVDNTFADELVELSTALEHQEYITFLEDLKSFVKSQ
The test can be described thus: pull-down; GST or GST-P32 on GST beads incubated with RNase H1 or its deletion mutants DL1, DL2; PBS or 50 mM Tris with 1 mM TCEP, NaCl 0-950 mM (150–450 mM for the deletion mutants), pH 6.0–10.0; room temperature; glutathione elution, Western blot; binding reduced above 150 mM NaCl and above pH 8; both purified.

Test [4] addresses T1, GST-P32 fusion protein. The experiment in a line: condition: 0.025–2.0 µg/400 µl (methods); 150-450 mM NaCl; pull-down; GST or GST-P32 on GST beads incubated with RNase H1 or its deletion mutants DL1, DL2; PBS or 50 mM Tris with 1 mM TCEP, NaCl 0-950 mM (150–450 mM for the deletion mutants), pH 6.0–10.0; room temperature; glutathione elution, Western blot; binding reduced above 150 mM NaCl and above pH 8; both purified.

These are yes or no findings as the source states them, for the method shown. For part of these data: Binding seen in cells or lysates may run through a third protein. Some entries that bind do so weakly or less than the wild type. For part of these data: Sequences can lack the tags named with a protein.

B1: endogenous human RNase H1 (enzyme, UniProt O60930 1-286)
chain: MSWLLFLAHRVALAALPCRRGSRGFGMFYAVRRGRKTGVFLTWNECRAQVDRFPAARFKKFATEDEAWAFVRKSASPEVSEGHENQHGQESEAKASKRLREPLDGDGHESAEPYAKHMKPSVEPAPPVSRDTFSYMGDFVVVYTDGCCSSNGRRRPRAGIGVYWGPGHPLNVGIRLPGRQTNQRAEIHAACKAIEQAKTQNINKLVLYTDSMFTINGITNWVQGWKKNGWKTSAGKEVINKEDFVALERLTQGMDIQWMHVPGHSGFIGNEEADRLAREGAKQSED
In the case of B1, the binding result in test [1] and in test [2] was “binds” in each case.

B2: N-terminal Flag-tagged human RNase H1 (enzyme, UniProt O60930 1-286)
chain: B1 chain
With B2, the binding entry in test [1] is given as “binds”.

B3: N-terminal His-tagged human RNase H1 (recombinant) (enzyme, UniProt O60930 1-286, looked up)
chain: B1 chain
notes: human RNase H1, 286 residues (domains printed as aa1-72, aa73-135, aa136-286), in the pET 3C vector; also called His-H1; His-tag RNase H1; source: E. coli BL21 (DE3), lysed in 6 M guanidine, purified (Ni-NTA agarose)
As to B3, in the test with GST-P32 fusion protein [3], the binding result was “binds”.

B4: human RNase H1 deletion mutant DL2 (domain or fragment, UniProt O60930 130-286)
chain: RDTFSYMGDFVVVYTDGCCSSNGRRRPRAGIGVYWGPGHPLNVGIRLPGRQTNQRAEIHAACKAIEQAKTQNINKLVLYTDSMFTINGITNWVQGWKKNGWKTSAGKEVINKEDFVALERLTQGMDIQWMHVPGHSGFIGNEEADRLAREGAKQSED
B4: the binding result with GST-P32 fusion protein [4] is “no binding”.

B5: human RNase H1 deletion mutant DL1 (domain or fragment, UniProt O60930 74-286)
chain: SASPEVSEGHENQHGQESEAKASKRLREPLDGDGHESAEPYAKHMKPSVEPAPPVSRDTFSYMGDFVVVYTDGCCSSNGRRRPRAGIGVYWGPGHPLNVGIRLPGRQTNQRAEIHAACKAIEQAKTQNINKLVLYTDSMFTINGITNWVQGWKKNGWKTSAGKEVINKEDFVALERLTQGMDIQWMHVPGHSGFIGNEEADRLAREGAKQSED
With B5, the binding entry with GST-P32 fusion protein [4] is “no binding”.
